Measured values taken from PubChem BioAssay AID894 (National Center for Advancing Translational Sciences (NCATS), 2007).
Out of some 150,000 compounds screened, about 6,500 (4.3%) were called active. The shares of active, inactive and inconclusive entries below differ from those in the screen. The call rests on the fitted dose curve; in most records, active means well fitted inhibition curve with a large enough effect (not every such curve was filed as active); inconclusive means small, poorly fitted or top-dose-only effect, or another doubt; inactive means no such curve, though single readings can be large or run the other way. No potency is given beside an inconclusive call; the fits are too rough.

target: 15-hydroxyprostaglandin dehydrogenase [NAD(+)] (Homo sapiens) (UniProt P15428); test: qHTS Assay for Inhibitors of HPGD (15-Hydroxyprostaglandin Dehydrogenase); settings: purified HPGD, NADH fluorescence kinetic, PGE2 substrate; activity change, negative = inhibition: active compounds read low
Outline: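 NADH formation kinetics: reaction with 30 uM PGE2 and 1 mM NAD+ (final), 20 nM enzyme, Tris-HCl pH 8 with Tween 20, after 15 min compound preincubation at room temperature. Fluorescence change, last versus first of five reads.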
On the % scale 0 is the no-effect control and ±100 the full control effect; potency means the concentration at half of the fitted maximal effect; tags describe the fitted curve by direction and shape.

UniProt P15428, sequence (P15428 whole entry, looked up): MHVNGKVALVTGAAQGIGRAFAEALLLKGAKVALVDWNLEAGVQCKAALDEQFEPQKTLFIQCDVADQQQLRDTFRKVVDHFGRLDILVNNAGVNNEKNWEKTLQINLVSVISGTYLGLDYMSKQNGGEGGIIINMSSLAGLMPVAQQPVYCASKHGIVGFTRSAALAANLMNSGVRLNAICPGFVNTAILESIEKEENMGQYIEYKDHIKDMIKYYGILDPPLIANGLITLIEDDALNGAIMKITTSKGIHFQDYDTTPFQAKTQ

Row | SMILES | Potency | activity change, negative = inhibition
1 | Cc1ccsc1/C=N/n1c(C2CCCCC2)n[nH]c1=S | active: 12.6 µM | 
2 | Cc1ccc(C2OC34CCCCCC3C(C#N)(C(=N)O4)C2(C#N)C#N)cc1 (configuration not stated) | inconclusive [inhibitor, partial curve] | 
3 | COc1cc(/C=C2\SC(=Nc3c(C)n(C)n(-c4ccccc4)c3=O)NC2=O)ccc1O | active: 14.1 µM | 
4 | COC(=O)[C@H]1CCCN1C(=O)Nc1cccc(Oc2c(F)c(F)c(F)c(F)c2F)c1 |  | inactive: -9.84%
5 | N#C/C(=C\c1cccnc1)C(=O)NC1CCCCC1 |  | inactive: -19.7%
6 | Cc1cc(C)n2c(SCC(=O)Nc3cc(C)on3)nnc2n1 | inconclusive [inhibitor, single point] | 
7 | Cc1ccc(/C=C/C(=O)NCc2ccco2)o1 | inconclusive [inhibitor, partial curve] | 
8 | COc1ccc2[nH]c(C)c(CCN(Cc3cccs3)C(=S)Nc3ccccc3)c2c1 |  | inactive: -7.29%
9 | NC1=C([N+](=O)[O-])C(c2ccccc2)C2=C(CCCC2=O)O1 (configuration not stated) | active: 20 µM | 
10 | O=C(Nc1cccnc1)c1ccc(COc2ccccc2Br)o1 | inconclusive [inhibitor, single point] | 
11 | CCCCOc1ccc(Cc2n[nH]c(=S)n2N)cc1 | active: 2.51 µM | 
12 | CCN(CC)C(=O)c1ccc2nc(-c3ccccc3)c(-c3ccccc3)nc2c1 | inconclusive [inhibitor, partial curve] | 
13 | COc1ccc(C(=O)c2ccc(Cl)cc2)cc1 | inconclusive [inhibitor, partial curve] | 
14 | O=S(=O)(NNc1ccc(Cl)nn1)c1ccc(F)cc1 | active: 3.55 µM | 
15 | CN(C)c1ccnc(-c2ccccc2C(F)(F)F)n1 |  | inactive: -3.65%
16 | O=S(=O)(Nc1ccc2c(c1)nc1n2CCN(Cc2ccccc2)C1)c1ccc(F)cc1 | inconclusive [inhibitor, single point] | 
17 | O=C(CN1CCNCC1)Nc1ccc(Oc2ccccc2)cc1 |  | inactive: -1.25%
18 | CCCn1c(SCC(=O)Nc2ccccc2-c2ccccc2)nnc1-c1ccoc1C |  | inactive: -1.52%
19 | Cc1ccc(N2C(N)=C(C#N)C(c3cccs3)C3=C2CC(C)(C)CC3=O)cc1 (configuration not stated) | inconclusive [inhibitor, single point] | 
20 | O=C(CSc1nc(-c2ccco2)cc(C(F)(F)F)n1)N1CCCc2ccccc21 | inconclusive [inhibitor, partial curve] | 
21 | CNc1ncncc1-c1ccc(C(=O)N(C)C)cc1 | inconclusive [inhibitor, partial curve] | 
22 | O=C(/C=C/c1ccc(Cl)cc1)Nn1c(-c2cccs2)nc2ccccc2c1=O | inconclusive [inhibitor, partial curve] | 
23 | COc1ccc(OC)c2sc(NC(=O)C(C)C)nc12 | inconclusive [inhibitor, single point] | 
24 | CC(=O)Nc1cccc(NC(=O)CSc2ncc(-c3ccc(Cl)cc3)n2Cc2ccco2)c1 |  | inactive: -24.1%

Row | SMILES | Potency | activity change, negative = inhibition
25 | Cc1cc(C)c2nc(NC(=O)c3ccc4c(=O)n5c(nc4c3)CCCCC5)sc2c1 |  | inactive: -15.2%
26 | O=C(c1cccc(-c2nnc(-c3ccccc3)o2)c1)N1CCCCC1 | active: 7.94 µM | 
27 | N#CCCn1cc(C(=O)Nc2ccc([N+](=O)[O-])cc2)c(-c2cccs2)n1 |  | inactive: -15.2%
28 | CCCCC1=CC2=C(c3ccco3)C(=O)C(C)(OC(=O)c3ccc(OC)cc3)C(=O)C2=CN1CCc1ccccn1 (configuration not stated) |  | inactive: -3.96%
29 | CC/C(=C1/C(=O)CC(C)(C)C(C(=O)OC)C1=O)N1CCCC1 (configuration not stated) |  | inactive: -0.0242%
30 | COc1cc(OC)cc(C(=O)NCC(=O)N2CCC(C)CC2)c1 |  | inactive: -17.9%
31 | CS(=O)(=O)N1CCN(c2ccccc2NC(=O)c2ccc(-c3ccc(Cl)cc3Cl)o2)CC1 | inconclusive [inhibitor, partial curve] | 
32 | COCC(C)n1c(-c2ccc3c(c2)NC(=O)CO3)csc1=Nc1ccc(OC(F)F)cc1 (configuration not stated) |  | inactive: -22.7%
33 | O=C1c2ccccc2NC2(CCCCC2)N1c1ccc(O)cc1 | inconclusive [inhibitor, partial curve] | 
34 | Cn1ncc(C#N)c1NC(=O)c1cc(-c2ccccc2Cl)on1 | inconclusive [inhibitor, partial curve, poor fit] | 
35 | COc1cc(-c2oc3cc(O)ccc3c(=O)c2O)ccc1O | inconclusive [inhibitor, partial curve] | 
36 | COc1c(N2CCN(C(=S)Nc3ccccc3)C(C)C2)c(F)cc2c(=O)c(C(=O)O)cn(C3CC3)c12 (configuration not stated) | inconclusive [inhibitor, single point] | 
37 | C=C1c2cc(OC)ccc2NC(=O)N1CC | inconclusive [inhibitor, single point] | 
38 | Cc1ccc(SCCC(=O)NCc2ccco2)cc1 | active: 28.2 µM | 
39 | C/C(=N\OCC(=O)Nn1c(=O)[nH]c2ccccc2c1=O)c1ccccc1 |  | inactive: -24.6%
40 | N#CC1=C(N)SC(N)=C(C#N)C1c1cccc(Oc2ccccc2)c1 | active: 22.4 µM | 
41 | COC(=O)C=P(c1ccccc1)(c1ccccc1)c1ccccc1 |  | inactive: -8.46%
42 | COc1cccc2c3c(c(C)nc12)CC(C)O3 (configuration not stated) | inconclusive [inhibitor, partial curve] | 
43 | O=C(COC(=O)c1cc([N+](=O)[O-])ccc1NCCO)c1ccccc1 |  | inactive: -19.2%
44 | COc1cc(/C=C/C(=O)c2ccc(C)c([N+](=O)[O-])c2)cc(OC)c1O |  | inactive: -8.33%
45 | CC/C(C)=N/NC(=S)NCc1ccco1 |  | inactive: 3.69%
46 | O=c1cc(-c2ccccc2O)oc2c(O)c(O)ccc12 | active: 10 µM | 
47 | COc1cccc(CNC(=O)c2cccc(Br)c2)c1 | inconclusive [inhibitor, partial curve, poor fit] | 
48 | COc1ccc(C(F)(F)F)cc1N/C=C\c1nnnn1-c1ccc(C)cc1 | inconclusive [inhibitor, partial curve, poor fit] | 

Row | SMILES | Potency | activity change, negative = inhibition
49 | CN1C(=O)c2ccc(NC(=O)c3c(F)c(F)c(F)c(F)c3F)cc2C1=O | inconclusive [inhibitor, partial curve] | 
50 | CCOC(=O)C1Cn2c(nc3c(c2=O)C(C)(CC)Cc2ccccc2-3)S1 (configuration not stated) | inconclusive [inhibitor, partial curve] | 
51 | COc1ccc(/C=C2\COc3ccccc3C2=O)cc1OC | inconclusive [inhibitor, partial curve] | 
52 | N#CSCC(=O)c1cccc2ccccc12 | inconclusive [inhibitor, single point] | 
53 | CCOC(=O)C1=C(C)NC2=C(C(=O)CCC2)C1c1cccs1 (configuration not stated) | inconclusive [inhibitor, partial curve] | 
54 | COC(=O)c1c[nH]n2c(=O)c(Cc3ccc(F)cc3Cl)c(C)nc12 | inconclusive [inhibitor, partial curve] | 
55 | CC(C)c1nc2oc3c(NCC4CCCO4)ncnc3c2c2c1COC(C)(C)C2 (configuration not stated) | inconclusive [inhibitor, partial curve] | 
56 | CCC1OC(=O)CC(O)C(C)[C@@H](O[C@@H]2OC(C)[C@H](O[C@@H]3C[C@@](C)(O)C(O)C(C)O3)C(N(C)C)C2O)[C@H](CC=O)CC(C)C(=O)/C=C/C(C)=C/[C@@H]1COC1OC(C)C(O)C(OC)[C@@H]1OC (some centres not stated) |  | inactive: -0.787%
57 | C=CCn1cc(-c2ccccc2)cc(C#N)c1=O | inconclusive [inhibitor, partial curve] | 
58 | C=CCOC(=O)NC(c1ccc(F)c(F)c1)C(C(=O)CCl)C(=O)OC (configuration not stated) |  | inactive: -22.2%
59 | COc1ccc(CCNC(=O)Cn2nc([N+](=O)[O-])c(Br)c2C)cc1OC |  | inactive: -0.487%
60 | NCc1ccc(-c2nc3ccccc3o2)cc1 | inconclusive [inhibitor, partial curve] | 
61 | COc1cc(OC)c2c(N)c(C#N)c(C(F)(F)C(F)(F)F)nc2c1 | inconclusive [inhibitor, partial curve] | 
62 | CCC(=O)Nc1ccc(C(=O)c2ccccc2)cc1 | active: 14.1 µM | 
63 | CCOc1ccc2nc(SCC(=O)c3ccc(C)s3)sc2c1 | active: 14.1 µM | 
64 | CC(C)(C)Cc1nc(-c2ccc(Cl)cc2)no1 |  | inactive: -4.37%
65 | O=C(COC(=O)[C@H](Cc1c[nH]c2ccccc12)NC(=O)c1ccc(Cl)cc1)Nc1ccc2c(c1)OCO2 |  | inactive: -15.5%
66 | CCOC(=O)c1ccc(NC(=O)c2cc3c(C)nn(-c4ccccc4Cl)c3s2)s1 | inconclusive [inhibitor, partial curve] | 
67 | O=C(Nc1cccc(Cn2cccn2)c1)c1cc2c(s1)CCCC2 | inconclusive [inhibitor, partial curve] | 
68 | Cn1cc(C(=O)N/N=C/C2=C(N3CCOCC3)C(=C\c3ccccc3)/CC2)ccc1=O |  | inactive: -4.33%
69 | O=C1C(=Cc2cccs2)C(=O)c2ccccc21 | inconclusive [inhibitor, partial curve] | 
70 | Cc1sc(NC(=O)CSc2nnc(C)c(=O)[nH]2)c(C#N)c1C |  | inactive: -16.7%
71 | O=C(c1cc(C(F)(F)F)cc(C(F)(F)F)c1)N1CCC2(CC1)CN(c1ccccn1)C2 | inconclusive [inhibitor, partial curve] | 
72 | COc1ccc(C2SCC(C(=O)O)N2C(C)=O)cc1OC (configuration not stated) |  | inactive: -9.68%
